# Measurements: PMC4336329 (PLoS ONE, 2015)
# Out of some 310,000 compounds screened, about 14,000 (4.5%) showed an effect of 50% or more. The effect is printed as a negative number. The list shows a part of the results.
# Molecular target: human ether-à-go-go-related gene (hERG) potassium channel (human, UniProt Q12809)
# Experiment: primary screen, population patch clamp on CHO cells stably expressing hERG
# 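Also: peak tail current of the secondary pulse compared with the same well before compound.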
# Sequence of human ether-à-go-go-related gene (hERG) potassium channel (Q12809 whole entry, looked up): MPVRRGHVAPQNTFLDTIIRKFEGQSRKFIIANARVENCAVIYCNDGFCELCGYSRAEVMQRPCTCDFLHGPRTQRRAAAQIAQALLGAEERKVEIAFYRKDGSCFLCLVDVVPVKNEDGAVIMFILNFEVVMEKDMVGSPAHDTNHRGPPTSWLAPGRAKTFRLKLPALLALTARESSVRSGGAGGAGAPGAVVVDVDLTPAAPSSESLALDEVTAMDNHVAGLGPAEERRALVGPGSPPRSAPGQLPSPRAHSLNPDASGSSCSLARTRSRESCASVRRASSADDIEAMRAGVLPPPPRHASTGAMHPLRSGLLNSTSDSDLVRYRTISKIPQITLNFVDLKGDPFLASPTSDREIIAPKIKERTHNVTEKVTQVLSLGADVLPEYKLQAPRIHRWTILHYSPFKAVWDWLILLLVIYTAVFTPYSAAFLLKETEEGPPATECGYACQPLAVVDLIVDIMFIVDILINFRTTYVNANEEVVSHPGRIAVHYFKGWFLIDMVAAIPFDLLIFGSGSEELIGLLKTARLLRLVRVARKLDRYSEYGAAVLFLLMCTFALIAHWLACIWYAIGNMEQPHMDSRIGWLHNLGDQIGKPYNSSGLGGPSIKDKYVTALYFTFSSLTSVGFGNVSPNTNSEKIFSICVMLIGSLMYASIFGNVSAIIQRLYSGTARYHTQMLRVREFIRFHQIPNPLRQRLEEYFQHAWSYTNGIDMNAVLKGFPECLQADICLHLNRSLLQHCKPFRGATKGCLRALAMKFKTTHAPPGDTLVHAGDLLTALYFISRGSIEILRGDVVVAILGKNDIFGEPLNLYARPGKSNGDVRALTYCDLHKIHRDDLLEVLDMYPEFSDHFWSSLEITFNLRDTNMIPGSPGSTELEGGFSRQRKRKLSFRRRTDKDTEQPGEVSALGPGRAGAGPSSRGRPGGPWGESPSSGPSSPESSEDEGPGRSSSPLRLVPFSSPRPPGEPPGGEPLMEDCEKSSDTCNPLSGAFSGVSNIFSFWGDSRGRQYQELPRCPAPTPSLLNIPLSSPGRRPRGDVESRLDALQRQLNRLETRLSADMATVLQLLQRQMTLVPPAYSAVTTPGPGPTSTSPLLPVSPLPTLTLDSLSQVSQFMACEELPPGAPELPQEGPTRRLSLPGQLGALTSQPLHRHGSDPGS
row,Structure (SMILES),"hERG current change (%, negative = inhibition) at 10uM"
1,COP(=O)(OC)c1nc(-c2ccccc2)oc1NCc1ccccc1,-9.13%
2,O=C(CSc1nnc(-c2c[nH]c3ccccc23)o1)c1ccc(-c2ccccc2)cc1,11%
3,Cl.OC(CN1CCN(Cc2ccccc2)CC1)c1ccc(F)cc1 (stereo not drawn),-67.9%
4,Cc1cc(C(=O)COC(=O)c2cccnc2Cl)c(C)n1CC1CCCO1 (stereo not drawn),-20.1%
5,CCN(CC)c1cc(Cl)c2nonc2c1N,-17.4%
6,O=C(/C=C/c1ccccc1Cl)Nc1ccc(Cl)cn1,9.22%
7,Cc1ccc2nc(C)c3c(c2c1)N(c1ccccc1)CC3,-74.6%
8,COc1cccc(CN(Cc2cccnc2)S(=O)(=O)c2ccc(-n3cnnn3)c(C)c2)c1,-41.6%
9,CC(=O)c1ccc(OCC(O)COc2ccc(C(C)=O)cc2)cc1,-11.3%
10,O=C(c1cccs1)N1CCCC(N2CCN(c3ccc(F)cc3)CC2)C1 (stereo not drawn),-65.7%
11,CC1CN(Cc2ccccc2Cl)CC(C)O1 (stereo not drawn),7.32%
12,COCC(N)(c1ccccc1)c1nc2ccccc2n1C (stereo not drawn),-1.19%
13,CC1CN(CC(=O)NN=C(c2ccccc2)c2ccccc2)CC(C)O1 (stereo not drawn),12.8%
14,CN1CCN(C2=Nc3cc(Cl)ccc3Nc3ccccc32)CC1,-10.3%
15,Cc1ccc(C(=O)NCC(=O)Nc2cc(C)ccn2)cc1,15.6%
16,O=C(NCc1ccc(N2CCCC2=O)cc1)c1cn(CCc2ccccc2)nn1,3.47%
17,NNC(=O)CCN1CCCCC1,10.3%
18,O=C(Cn1cnc2c(nnn2Cc2ccc(F)cc2)c1=O)Nc1cccc(F)c1,1.5%
19,O=C(NCC1CCCO1)c1cc2c(=O)[nH]c3ccccc3c2s1 (stereo not drawn),11.9%

row,Structure (SMILES),"hERG current change (%, negative = inhibition) at 10uM"
1,CCCCS(=O)(=O)NC1=NCN(Cc2ccco2)CN1,26.2%
2,O=C(CC1SCCNC1=O)Nc1cccc([N+](=O)[O-])c1 (stereo not drawn),18.6%
3,COc1ccc(C(=O)C(C)[n+]2ccc(-c3nnc4n3CCCCC4)cc2)cc1.[Br-] (stereo not drawn),-4.54%
4,O=C(NNC(=O)c1ccc(-c2ccccc2)cc1)Nc1ccccc1,11.1%
5,CC1(C)CC(=O)N(c2cccc(C(F)(F)F)c2)C(=O)C1,16.4%
6,COc1ccc(C(=O)n2nc(C)cc2C)cc1OC,-3.18%
7,CC(=O)c1cccc(NC(=O)C(C)OC(=O)CN2C(=O)NC(C)(C)C2=O)c1 (stereo not drawn),23.8%
8,CC(=O)c1cccc(NC(=S)NCCc2ccc(F)cc2)c1,2.15%
9,CCC(=O)NCCc1nc2cc(NC(=O)COc3ccccc3)ccc2n1C,16.6%
10,Cc1cc(=O)oc2cc(OCC(=O)OCC(=O)Nc3ccc(C(C)C)cc3)ccc12,-0.188%
11,C[C@H]1C=CC(=O)O[C@H]1c1ccccc1,11.5%
12,COc1ccc(Cn2c(CCC(=O)Nc3ccc(C)c(C)c3)nc3cccnc32)cc1,3.94%
13,O=C(CNCc1ccco1)Nc1ccc(Oc2ccccc2)cc1.O=C(O)C(=O)O,-21.3%
14,Cc1cccc(NS(=O)(=O)c2ccc(-n3cccn3)cc2)c1C,0.598%
15,Cc1ccc(-n2c(NN)nc3ccccc3c2=O)c(C)c1,7.91%
16,COc1cc2oc3ccccc3c2cc1N(CC(=O)N1CCCCC1)S(=O)(=O)c1ccc(C)cc1,7.19%
17,CCCCn1c2nc3ccccc3nc2c2c(=O)n(CCC(C)C)cnc21,1.94%
18,CCOC(=O)C1C(=O)C=C(c2ccc(Br)cc2)CC1c1ccco1 (stereo not drawn),-23.2%
19,O=C(CN1CCOCC1)Nc1c(Cl)cc(Cl)cc1Cl,-2.17%

row,Structure (SMILES),"hERG current change (%, negative = inhibition) at 10uM"
1,Cc1nc([N+](=O)[O-])c(C(=O)OCc2ccccc2F)n1C,-3.69%
2,Cc1ccc(NC(=O)CCC(=O)n2nc(C)cc2C)c(C)c1,-10%
3,CCN(CC(=O)Nc1ccc(NC(C)=O)cc1)CC(=O)Nc1ccc(Cl)c(Cl)c1.O=C(O)C(=O)O,19%
4,COc1ccc(/C=N/NC(=O)CCCCCNC(=O)c2ccccc2)cc1,-23.9%
5,O=[N+]([O-])c1ccc(C2NS(=O)(=O)N=C3CCCCCN32)cc1 (stereo not drawn),0.721%
6,COC(=O)c1ccc(N2C(=O)C3CC(C)=C(C)CC3C2=O)cc1 (stereo not drawn),3.73%
7,CC(C)(C)OC(=O)N1CCC[C@H]1c1nnc(SCC(=O)Nc2cccc(Cl)c2)o1,-19.5%
8,COc1ccc(/C=N/NC(=O)C2CC2)c(OC)c1OC,12.9%
9,CCCCOC(=O)COc1cc(C)cc2oc(=O)c3c(c12)CCC3,-1.09%
10,O=c1oc2ccccc2cc1-c1nc2c(s1)CCc1ccccc1-2,-8.72%
11,CCC(C)n1c(/C=C/c2ccccc2)nc2ccccc21 (stereo not drawn),-31.2%
12,Cn1cc(S(=O)(=O)Cc2ccc(F)cc2)c2ccccc21,12.4%
13,CN(C1CCCCC1)S(=O)(=O)c1cccc(C(=O)Nc2ccccn2)c1,-53.7%
14,Cc1ccc(-c2nc(CSCC(=O)N3CCN(C(=O)c4ccco4)CC3)c(C)o2)cc1,-32.7%
15,Cc1ccc(C(=O)N[C@@H](Cc2ccccc2)C(=O)N2CCC3(CC2)NCCc2[nH]cnc23)cc1C,7.87%
16,CS/C(=C\[N+](=O)[O-])Nc1ccc(C)cc1,2.14%
17,O=C(CN(CCc1ccccc1)C(=O)CN1C(=O)COc2ccccc21)NCc1ccco1,-17.8%
18,O=C(Oc1ccc(O)cc1)C12CC3CC(CC(C3)C1)C2,8.92%
19,CC(=O)Oc1ccc(C2OC(=O)c3ccccc3N2C(C)=O)cc1 (stereo not drawn),1.12%
